± gives the standard deviation of the averaged measurements. The list shows a part of the results.
Test system: PfAP2-LT AP2 domain (GST-tagged)
Assay: gcPBM binding intensity (ln(normalized median fluorescence intensity)); higher = stronger DNA binding
How it was run: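 For binding intensity, the highest Masliner-normalised natural-log median intensity across replicate spots of either probe orientation was taken. Protein bound to the array was stained with Alexa488 anti-GST antibody and scanned at 488 nm. The protein, GST-tagged P. falciparum DNA-binding domains from E. coli at about 25 μg on average, had been applied for 1 h to an Agilent 4 × 180k array of primer-extended double-stranded 36-bp intergenic genomic probes and negative controls.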

Row | Sequence | gcPBM binding intensity (ln)
1 | TTAAAAGAAAATAACACACACAAAAAAAAAAAAAAA [CACACA_site2117] | 9.12 ± 0.49
2 | TAAGGACTAATATTTGAACACACATATAATATATAC [CACACA_site9325] | 8.88 ± 0.42
3 | TATATATTTGTTCACACACACACAAAAAAAAAAAAA [CACACA_site2475] | 9.47 ± 0.51
4 | CATATATATATATATATATATATATTTATTTATTTA [TGCATGCA_negctrl_site165] | 9.16 ± 0.11
5 | GTCATCAAGTATTAAGTGCATTAAAAATAAAATATA | 8.61 ± 0.48
6 | AAAATTTTCTTTTTATGTACACATAATTTTACCGGA [XGTACX_site5276] | 8.65 ± 0.49
7 | TATATTTTACTCTTCACACATATACTCAATTTATAT [CACACA_site5357] | 8.97 ± 0.49
8 | AAAAGAAAAAGAAAAACACACATAAATATAAATATA [CACACA_site1879] | 8.93 ± 0.64
9 | CATATTTGGAAACACACACACATATTTATATATATA [CACACA_site3569] | 9.62 ± 0.38
10 | AAATTCAGGTTATATTTTAATTTTTTTTTGTTTTTT [CACACA_negctrl_site924] | 8.46 ± 0.51
11 | AATTTTTCATCAAGTTGTACAATTATTTGTTTGTTT [XGTACX_site3113] | 9.04 ± 0.54
12 | CATACACATACACATACACACGCATAGAAACATACG [CACACA_site8666] | 9.55 ± 0.51
13 | CAATATTTTTTATAGGGTACAAAAGATAAAAAAAAA [XGTACX_site6298] | 8.7 ± 0.49
14 | AAAACAATAATATACTGTACATATATATAATAACAT [XGTACX_site6188] | 9.01 ± 0.46
15 | GTACATACATAAAACACACACATATATATATATATA [CACACA_site1826] | 10.17 ± 0.071
16 | TGCTAATAATTATTTGTTTAGCAACAAAAAAAAAAA [CACACA_negctrl_site1541] | 8.32 ± 0.5
17 | TTCTTTTTAATTTATTTTTTCTTATAACAAGAAAAC [CACACA_negctrl_site201] | 8.44 ± 0.54
18 | GTAATATGTATCCATACACACATACATTTTATTTGC [CACACA_site4640] | 9.21 ± 0.45
19 | TCACATATGTTCCATTGTACTTGTAGTAATTTTTTC [XGTACX_site6473] | 8.87 ± 0.34
20 | ATAAAATGAAATATATGTACGCATCACTTGTTGAAC [XGTACX_site4530] | 8.99 ± 0.36
21 | TTCTTTTCTTTTTTCTTTTTTTTTTTCTTTTCTTTT [GTGCAC_negctrl_site630] | 8.57 ± 0.64
22 | AAAAAAAAAAAAAAAACATGCAAAATAATATATATA [TGCATGCA_site68] | 8.74 ± 0.49
23 | AGAAAAGGACATATATGTACTTATCAATATAGAAAC [XGTACX_site1042] | 9.04 ± 0.48

Row | Sequence | gcPBM binding intensity (ln)
24 | ATGTAGATATATATCTGTACGTATATGTAAATATTA [XGTACX_site1516] | 8.99 ± 0.47
25 | ACACATTATAACAAGGTGCAATTTTTATACACATGT [GTGCAC_site9866] | 9.15 ± 0.42
26 | AATTCTTTTTATATATTAAATATTATTAATAAGTCA [CACACA_negctrl_site1488] | 8.29 ± 0.45
27 | CAAATATCTATTTAGTGTACTAATATATTCAATAAT [XGTACX_site2345] | 8.53 ± 0.49
28 | TATATAAAACCTTATTGTACTATTAGACTATGCTTA [XGTACX_site6026] | 8.6 ± 0.57
29 | ACAAAGACAATTTTGTTATATATAAAAAAAAAAAAT [CACACA_negctrl_site253] | 8.59 ± 0.56
30 | ATTAATTTTCCATTCACACATATATATATATATATA [CACACA_site6065] | 9.5 ± 0.17
31 | TACAAATATATATGCACACACATATCTGTATATGTG [CACACA_site5663] | 9.58 ± 0.26
32 | ATAGCATATATTTTTTGTACATATGTTATATATATA [XGTACX_site2184] | 8.95 ± 0.33
33 | GAAAAAAAAAAAAATACACACAAATTGGTATATAAC [CACACA_site6315] | 9.06 ± 0.51
34 | AAAATTTCATAAAGACGTACTATAAAAATAAAATTA [XGTACX_site4182] | 8.56 ± 0.49
35 | GCTATAATAAAATTTAAACACACGTAATATAATATA [CACACA_site2592] | 8.74 ± 0.41
36 | AATTGTATAAATGGAATAATGACTATGATTATACAT [GTGCAC_negctrl_site188] | 8.97 ± 0.47
37 | GTATATTTCTTTAAATGTACACATTTTTTTAAAGAG [XGTACX_site1225] | 8.46 ± 0.38
38 | AAAAATTCTTGGCGCACACACTTTAAAAGTTAAAAA [CACACA_site6430] | 9.02 ± 0.42
39 | CACTAATAGTGGATTACACACATATAGATGTATATA [CACACA_site7234] | 8.95 ± 0.35
40 | TATAAAAAATATCCTTTTTTTATACATCAATATATA [TGCATGCA_negctrl_site291] | 8.2 ± 0.45
41 | TATTAAAAGAAAATAACACACACAAAAAAAAAAAAA [CACACA_site8661] | 9.07 ± 0.38
42 | AAAATAAGCGTGAAACGTACATATTACATTATTATA [XGTACX_site8914] | 8.78 ± 0.56
43 | ATAATATATATATAGTGTACATTTGAATATATTTGA [XGTACX_site583] | 8.72 ± 0.4
44 | TTTTTGAAATAATGAAACAGCAAAAAAACAAAAATA [CACACA_negctrl_site221] | 8.7 ± 0.47
45 | AAAAAAAACAGACACACACACAAATATATAAAAATA [CACACA_site1172] | 9.94 ± 0.35
46 | AAGGTCATTTTATATTGTACATGAAATTGTTATGTA [XGTACX_site187] | 8.71 ± 0.41

Row | Sequence | gcPBM binding intensity (ln)
47 | TATTACAAATATGGCACACATATATATATATATATT [CACACA_site3268] | 9.28 ± 0.12
48 | AATAATGAATACACATGTACAAAAATTTTTCTTACT [XGTACX_site1962] | 8.84 ± 0.3
49 | ATATATTTTGTATGTAGTACAATTTTATAATCATAT [XGTACX_site8373] | 8.73 ± 0.42
50 | TCAATTTGGAACGGTATGCACTAATTTTATATTTTT | 8.79 ± 0.42
51 | ATATACAGATAAATGTGTACTTAAATCTATTATATT [XGTACX_site2632] | 8.74 ± 0.41
52 | AAAATAAAAACAAAATCACACATTCCAGTTTTTTTT [CACACA_site5356] | 8.62 ± 0.46
53 | TTTTAAAATATCAACACACTCATTATTTTCTATATT [CACACA_site4740] | 8.64 ± 0.47
54 | TATATACATGTGAGAGTGCATATAGACATAAAAAAT | 9.06 ± 0.54
55 | TCATTCTATCTGTTCACACATACACAAAAAAAAAAA [CACACA_site5141] | 8.49 ± 0.36
56 | TTTATATTTCTCTTTAGTACATATTATATTCTTTTA [XGTACX_site1618] | 8.73 ± 0.51
57 | AATGAAAATAAATTAACACACAATTTTAATATTGTT [CACACA_site1306] | 8.66 ± 0.45
58 | AAACATCATAAATATACACACATATATATATATATA [CACACA_site620] | 9.83 ± 0.13
59 | TACACAAAATTTAAATGTACATTAAATATATGATGT [XGTACX_site2140] | 8.75 ± 0.44
60 | CTTTCGGTTGGAGAGGTGCGCTTCTCCTTTATAATA | 8.76 ± 0.3
61 | TGATAGCTAGCTATATGTACATATATATATATATAT [XGTACX_site393] | 9.54 ± 0.39
62 | ATTTATCTATAATATACACACATATAACAGACATAT [CACACA_site6469] | 9.01 ± 0.33
63 | AAAACGTATCACAAAAGTACAGATAGTTATAATATA [XGTACX_site185] | 8.96 ± 0.47
64 | CGAAACCATATGTACACACACATATATAAATATGTA [CACACA_site7082] | 9.43 ± 0.44
65 | ATATATCAACTCATATTATTTTCTTTTATTATTTAT [CACACA_negctrl_site276] | 8.76 ± 0.49
66 | GTATACTTAACATTCACACATATATATATATATAAA [CACACA_site4596] | 9.12 ± 0.22
67 | ATATATATATATATATGTACTTATAATTCTTCAATT [XGTACX_site5627] | 9.515 ± 0.035
68 | AATTATTTACCTTCTTTGAAAGAACAAATGATACAA [CACACA_negctrl_site1315] | 8.47 ± 0.42
69 | CTAAAACAATAAATCACACATACATAGGATAATATA [CACACA_site4247] | 8.98 ± 0.45

Row | Sequence | gcPBM binding intensity (ln)
70 | ATTTATAATCTGTATAGTACACATATATACATGGTT [XGTACX_site2714] | 8.93 ± 0.43
71 | TCTTAAATATACAGTTGTACTAAACAAAAAAAAAAA [XGTACX_site2639] | 8.65 ± 0.47
72 | AAAATATACACACATATGTATATAATATTATATGTA [GTGCAC_negctrl_site496] | 9.15 ± 0.42
73 | TATAAAAAATGATAAAGTACTTTATACACACAAATA [XGTACX_site8486] | 9.06 ± 0.44
74 | TATATATATATATATTGTACATATTGTATATATTGT [XGTACX_site3212] | 9.33 ± 0.38
75 | TGTTACATATTATAAATACATTAACTATTATATGTA [CACACA_negctrl_site1735] | 8.6 ± 0.37
76 | TTTATAAAAAATTTTTTTTTTTTTTTTTAAATATAT [CACACA_negctrl_site146] | 8.08 ± 0.42
77 | TATATATATATTTATACACACATTAGTGTATCCATG [CACACA_site5609] | 9.45 ± 0.38
78 | TTAACAAATGGACACACACACACACCCAAAAAAAAA [CACACA_site4443] | 9.97 ± 0.042
79 | TTATATTAAACAAACACACACATATATATATATATA [CACACA_site2382] | 9.54 ± 0.49
80 | ATCAATACACATATATGTACATATAATAATTATCTT [XGTACX_site662] | 8.96 ± 0.42
81 | TTATTTTTTCAAGAATGTACTTACGAATTGTCGTAT [XGTACX_site1363] | 8.65 ± 0.4
82 | CAAAAAAACAAACACACACACACACCCATATATATA [CACACA_site3653] | 10.25 ± 0.085
83 | TAATTACCATATGGTACACACATATATATATGTATA [CACACA_site3487] | 9.21 ± 0.43
84 | TTGGCATACAGACACACACACACACGCCCACATATA [CACACA_site6425] | 10.1 ± 0.38
85 | TTTTTTTTTTGTAGTTGTACGAACTAGCTATTTATG [XGTACX_site692] | 8.77 ± 0.48
86 | ATATATATATATATATGTACATATATATATTTTTTA [XGTACX_site5987] | 9.62 ± 0.26
87 | TATATATATATATGTTGTACTTTTAATTTAAATGTA [XGTACX_site4239] | 9.19 ± 0.57
88 | TTTTTTTTTTATTCTACACACATATGTTTTTATATG [CACACA_site182] | 9.07 ± 0.44
89 | TTTTTTTTTAAGCAAAGGAAATCAAAATAAAAATAT [CACACA_negctrl_site719] | 8.19 ± 0.4

Reference: the supplement of paper PMC11417369
